# Data as given in PubChem BioAssay AID686979 (National Center for Advancing Translational Sciences (NCATS), 2013).
# Several values for one entry are separate records, joined by “and”; a condition that tells them apart may be missing. Equal values may be shown once. In all, about 420,000 compounds went through this assay and about 50,000 (12%) were called active. The shares of active, inactive and inconclusive entries below differ from those in the screen. The call rests on the fitted dose curve; in most records, active means well fitted inhibition curve with a large enough effect; inconclusive means small, poorly fitted or top-dose-only effect; inactive means flat fitted curve, though single readings scatter. Where the call is inconclusive, the potency comes from a doubtful curve fit.
# Test: qHTS for Inhibitors of human tyrosyl-DNA phosphodiesterase 1 (TDP1): qHTS in cells in presence of CPT; further: nearly all actives have a fitted effect of over 55% in size
# Details: chicken DT40 Tdp1-/-;hTDP1 cells + 20 nM CPT, ATP luminescence, 48 h; activity change, negative = growth inhibition: at 46.2 µM (top of the series) unless noted
# Method in brief: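 Cell growth measured by CellTiter-Glo luminescence after a minimum 48 h, 37 C compound exposure with 20 nM CPT in Tdp1-knockout DT40 cells stably expressing hTDP1, seeded 400/well; qHTS titration format.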
# On the % scale 0 is the no-effect control and ±100 the full control effect; potency means the concentration at half of the fitted maximal effect; tags describe the fitted curve by direction and shape.
Structure (SMILES),Potency,"activity change, negative = growth inhibition"
Cc1cccc(NC(=O)C2CCCN(S(=O)(=O)c3cccc4nsnc34)C2)n1 (configuration not stated),inactive,–
COc1ccc(NC(=O)C2(C)CCN2Cc2ccc(OC)c3ccccc23)cc1OC (configuration not stated),"inconclusive: 29.1 µM [inhibitor, single point]",–
Cc1cc(C)c2nc(N3CCC(C(=O)NCCCN4CC(C)CC(C)C4)CC3)sc2c1 (configuration not stated),"inconclusive: 29.1 µM [inhibitor, single point]",–
Nc1[nH]c(=O)nc2c1ncn2C1OC(CO)C(O)C1O (configuration not stated),"inconclusive: 15.8 µM [inhibitor, partial curve]",–
CCOC(=O)Cc1cc(=O)n2[nH]c(C)c(-c3ccc(OC)cc3)c2n1,"inconclusive: 23.1 µM [inhibitor, single point]",–
Cc1ccc(-n2nc3c(N4CCCC(C(=O)NCCc5ccccc5)C4)nnc(C)c3c2C)cc1 (configuration not stated),active: 16.4 µM,–
COC(=O)c1ccccc1NC(=S)NC(=O)C1CC1,"inconclusive: 7.31 µM [inhibitor, partial curve]",–
CCOC(=O)N1CCN(C(=O)c2ccc3c(=O)n(-c4ccc(F)cc4)c(=S)[nH]c3c2)CC1,–,inconclusive: -31.9% [inhibitor]
Cc1ccc(CNC(=O)Cn2ccn(-c3ccc(C)c(C)c3)c(=O)c2=O)cc1,"inconclusive: 16.4 µM [inhibitor, single point]",–
Nc1nonc1-c1nc2ccccc2n1Cc1ccc(F)cc1,active: 16.4 µM,–
Cc1csc(SCc2nc3sc4c(c3c(=O)[nH]2)CCC4)n1,inactive,–
O=C(/C=C/c1ccco1)NCC(=O)N/N=C/c1ccc(Cl)cc1,"inconclusive: 18.4 µM [inhibitor, single point]",–
O=c1c(-c2cc(F)cc(F)c2)nc2cnc(N3CCNCC3)nc2n1Cc1cccs1,"inconclusive: 25.9 µM [inhibitor, single point]",–
O=C(NCc1ccc(F)cc1)C1CCN(S(=O)(=O)c2ccc(N3CCCC3=O)cc2)CC1,"inconclusive: 23.1 µM [inhibitor, single point]",–
C1COC(NC(C2CC2)C2CC2)=N1,"inconclusive: 33.5 µM [inhibitor, single point] and inconclusive: 29.9 µM [inhibitor, single point] and inconclusive: 20.6 µM [inhibitor, single point]",–
CN(C)c1ccc(C(=O)c2ccc(N(C)C)c(N)c2)cc1N,"inconclusive: 18.4 µM [inhibitor, single point]",–
COc1cccc(C2NC(=O)NC(C)=C2C(=O)Nc2cccc(C)c2C)c1 (configuration not stated),inactive,–
OC[C@@H]1CN(Cc2cccs2)C[C@H](n2cnc3c(Nc4ccccc4)ncnc32)O1,"inconclusive: 32.6 µM [inhibitor, single point]",–
O=C(NC1CCCCC1)c1nc(-c2c(F)cccc2F)oc1-c1ccccc1,active: 23.1 µM,–
Cc1ccc(CCNC(=O)Cn2c(-c3cccs3)cc3cc(F)ccc32)cc1,active: 18.4 µM,–
O=C(O)c1ccc(NC(=O)c2cn(-c3ccccc3)nc2-c2ccc(F)cc2)cc1,"inconclusive: 6.51 µM [inhibitor, full curve]",–

Structure (SMILES),Potency,"activity change, negative = growth inhibition"
O=C(N/N=C(\Cc1ncc[nH]1)c1ccccc1)c1ccncc1,active: 4.61 µM,–
Cc1c(C(=O)Nc2cccnc2)oc2ccc(Br)cc12,"inconclusive: 29.1 µM [inhibitor, single point]",–
COc1ccc(-c2csc(NC(=O)C3CCCO3)n2)cc1 (configuration not stated),"inconclusive: 20.6 µM [inhibitor, partial curve, poor fit]",–
COc1cc(OC)c(OC)cc1NC(=O)CC1COc2ccccc2O1 (configuration not stated),"inconclusive: 23.1 µM [inhibitor, single point]",–
CC(=O)Nc1cnc(-c2ccccc2C(F)(F)F)cn1,inactive,–
Cc1ccc(S(=O)(=O)N2CCOC2CNC(=O)C(=O)NCCc2ccccc2)cc1 (configuration not stated),"inconclusive: 20.6 µM [inhibitor, single point]",–
Cc1cn([C@H]2C[C@H](O)[C@@H](CCC(=O)NCCCn3ccnc3)O2)c(=O)[nH]c1=O,inactive,–
COc1ccc2[nH]cc(CCNc3ncnc4ccc(-c5ccccc5CN(C)C)cc34)c2c1,"inconclusive: 25.9 µM [inhibitor, single point]",–
N#CC1=C(N)Oc2cc3c(cc2C1c1ccc(Cl)cc1)OCO3 (configuration not stated),"inconclusive: 29.1 µM [inhibitor, single point]",–
O=C(Cc1cccc2ccccc12)N/N=C/c1ccc(OC(=O)/C=C/c2ccco2)cc1,"inconclusive: 13 µM [inhibitor, partial curve]",–
COCc1cc(C)n(CC(=O)N2CCCC2)c(=O)c1C#N,inactive,–
CCOc1ccc(CCN2C(=S)N([C@@H](Cc3ccc(O)cc3)CN3CCC[C@@H]3CN3C(=S)NC[C@@H]3Cc3ccc(O)cc3)C[C@@H]2Cc2ccc(O)cc2)cc1,"inconclusive: 29.1 µM [inhibitor, single point]",–
CCOC(=O)Cn1cccc1-c1nc(-c2ccc(OC)cc2)c(-c2ccc(OC)cc2)s1,inactive,–
CN(Cc1ccccc1)S(=O)(=O)c1ccc(S(=O)(=O)N(Cc2ccc(F)cc2)C2CCCC2)cc1,–,inconclusive: -38.1% [inhibitor]
Cc1cc2nc3c(=O)[nH]c(=S)[nH]c3nc2cc1NC(=O)C(F)(F)F,"inconclusive: 29.1 µM [inhibitor, single point]",–
OC[C@H]1O[C@@H](c2nc(-c3ccc(C4OCCO4)cc3)no2)[C@H](O)[C@@H]1O,"inconclusive: 20.6 µM [inhibitor, partial curve]",–
O=c1[nH]cnc2c1sc1nc3c(c(-c4ccc(Cl)cc4)c12)CCC3,inactive,–
COc1ccc(CCn2c(N)c(C(=O)NCc3ccco3)c3nc4ccccc4nc32)cc1,active: 11.6 µM,–
Cc1cc(C)n(-c2nc3c(c(=O)[nH]c(=O)n3C)n2CCc2ccccc2)n1,"inconclusive: 20.6 µM [inhibitor, single point]",–
Oc1cccc(Nc2c3ccccc3nc3ccccc23)c1,active: 1.16 µM,–
O=C1NC2(CCCCC2)C(=O)N1c1cccc(Cl)c1,inactive,–
